Holding throughout (test): glycan array binding signal (z-score within array); higher = stronger binding
What all share (settings): glycan notation: IUPAC condensed, linker removed

Experiment [1] addresses GlcNAc(b1-3)Gal(b1-3)GalNAc. A digest of the protocol:
(§1)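 Glycan array data were curated from 3228 arrays in the Consortium for Functional Glycomics database and kept only where the protein sequence was available. Glycan names were converted to IUPAC-condensed notation, and columns mapping to the same glycan were averaged. The binding signal is a within-array Z-score, averaged across arrays of the same protein sequence at different concentrations or buffers and across linkers. Negative Z-scores can be read as non-binding.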

The target in experiment [2] is GlcNAc(b1-3)Gal(b1-4)Glc. A digest of the protocol: as §1
The target in experiment [3] is GlcNAc(b1-3)Gal(b1-4)GlcNAc. A digest of the protocol: as §1
For experiment [4], the target named is GlcNAc(b1-3)Gal(b1-4)GlcNAc(b1-2)Man(a1-3)[GlcNAc(b1-3)Gal(b1-4)GlcNAc(b1-2)Man(a1-6)]Man(b1-4)GlcNAc(b1-4)GlcNAc. In outline: as §1
Experiment [5] addresses GlcNAc(b1-3)Gal(b1-4)GlcNAc(b1-2)Man(a1-3)[GlcNAc(b1-3)Gal(b1-4)GlcNAc(b1-2)Man(a1-6)]Man(b1-4)GlcNAc(b1-4)[Fuc(a1-6)]GlcNAc. In outline:
as §1

Experiment [6] deals with GlcNAc(b1-3)Gal(b1-4)GlcNAc(b1-2)[GlcNAc(b1-3)Gal(b1-4)GlcNAc(b1-6)]Man(a1-6)[GlcNAc(b1-3)Gal(b1-4)GlcNAc(b1-2)Man(a1-3)]Man(b1-4)GlcNAc(b1-4)GlcNAc. In outline:
as §1

The target of experiment [7] is GlcNAc(b1-3)Gal(b1-4)GlcNAc(b1-3)Gal(b1-4)GlcNAc. A digest of the protocol:
as §1

In experiment [8] the target is GlcNAc(b1-3)Gal(b1-4)GlcNAc(b1-3)Gal(b1-4)GlcNAc(b1-2)Man(a1-3)[GlcNAc(b1-3)Gal(b1-4)GlcNAc(b1-3)Gal(b1-4)GlcNAc(b1-2)Man(a1-6)]Man(b1-4)GlcNAc(b1-4)GlcNAc. In outline: as §1
Experiment [9] concerns the target GlcNAc(b1-3)Gal(b1-4)GlcNAc(b1-3)Gal(b1-4)GlcNAc(b1-2)Man(a1-3)[GlcNAc(b1-3)Gal(b1-4)GlcNAc(b1-3)Gal(b1-4)GlcNAc(b1-2)Man(a1-6)]Man(b1-4)GlcNAc(b1-4)[Fuc(a1-6)]GlcNAc. A digest of the protocol: as §1
In experiment [10] the target is GlcNAc(b1-3)Gal(b1-4)GlcNAc(b1-3)Gal(b1-4)GlcNAc(b1-2)[GlcNAc(b1-3)Gal(b1-4)GlcNAc(b1-3)Gal(b1-4)GlcNAc(b1-6)]Man(a1-6)[GlcNAc(b1-3)Gal(b1-4)GlcNAc(b1-3)Gal(b1-4)GlcNAc(b1-2)Man(a1-3)]Man(b1-4)GlcNAc(b1-4)[Fuc(a1-6)]GlcNAc. A digest of the protocol: as §1
The target in experiment [11] is GlcNAc(b1-3)Gal(b1-4)GlcNAc(b1-3)Gal(b1-4)GlcNAc(b1-3)Gal(b1-4)GlcNAc(b1-2)Man(a1-3)[GlcNAc(b1-3)Gal(b1-4)GlcNAc(b1-3)Gal(b1-4)GlcNAc(b1-3)Gal(b1-4)GlcNAc(b1-2)Man(a1-6)]Man(b1-4)GlcNAc(b1-4)GlcNAc. A digest of the protocol:
as §1

The target of experiment [12] is GlcNAc(b1-3)Gal(b1-4)GlcNAc(b1-3)Gal(b1-4)GlcNAc(b1-3)Gal(b1-4)GlcNAc(b1-2)Man(a1-3)[GlcNAc(b1-3)Gal(b1-4)GlcNAc(b1-3)Gal(b1-4)GlcNAc(b1-3)Gal(b1-4)GlcNAc(b1-2)Man(a1-6)]Man(b1-4)GlcNAc(b1-4)[Fuc(a1-6)]GlcNAc. A digest of the protocol:
as §1

Experiment [13] concerns the target GlcNAc(b1-3)Gal(b1-4)GlcNAc(b1-3)Gal(b1-4)GlcNAc(b1-3)Gal(b1-4)GlcNAc(b1-2)[GlcNAc(b1-3)Gal(b1-4)GlcNAc(b1-3)Gal(b1-4)GlcNAc(b1-3)Gal(b1-4)GlcNAc(b1-6)]Man(a1-6)[GlcNAc(b1-3)Gal(b1-4)GlcNAc(b1-3)Gal(b1-4)GlcNAc(b1-3)Gal(b1-4)GlcNAc(b1-2)Man(a1-3)]Man(b1-4)GlcNAc(b1-4)[Fuc(a1-6)]GlcNAc. A digest of the protocol: as §1
The target in experiment [14] is GlcNAc(b1-3)Gal(b1-4)GlcNAc(b1-3)Gal(b1-4)GlcNAc(b1-3)Gal(b1-4)GlcNAc(b1-3)Gal(b1-4)GlcNAc(b1-2)Man(a1-3)[GlcNAc(b1-3)Gal(b1-4)GlcNAc(b1-3)Gal(b1-4)GlcNAc(b1-3)Gal(b1-4)GlcNAc(b1-3)Gal(b1-4)GlcNAc(b1-2)Man(a1-6)]Man(b1-4)GlcNAc(b1-4)GlcNAc. A digest of the protocol:
as §1

The target in experiment [15] is GlcNAc(b1-3)Gal(b1-4)GlcNAc(b1-3)Gal(b1-4)GlcNAc(b1-3)Gal(b1-4)GlcNAc(b1-3)Gal(b1-4)GlcNAc(b1-2)Man(a1-3)[GlcNAc(b1-3)Gal(b1-4)GlcNAc(b1-3)Gal(b1-4)GlcNAc(b1-3)Gal(b1-4)GlcNAc(b1-3)Gal(b1-4)GlcNAc(b1-2)Man(a1-6)]Man(b1-4)GlcNAc(b1-4)[Fuc(a1-6)]GlcNAc. In outline: as §1

Some of the results follow.

B1: Cp ZmpB (Clostridium perfringens), Q0TR08 (protein)
chain: MNKRKIAAIILATMITNLSATTIDVLAQELNTKNNSKVEVSHDDESHQARVSKFDLYNSDKLDAYNQEFQVSRSNIKSINNNGGKYNSSTIDKAIDGNLETHWETGKPNDANFTNEVVVTFNEITNIDRIVYSARRDSARGKGFAKEFEIYASLKDEGDDFNLVSSGEYTESTRDLVEIKFNPTDFKRLKFKFKKADQNWASAAEFMFYKEDKLNEKFNGLFTDSSMNKVSEEFNTLEKLNAFENELKDHPIYDLYKEGLNNARAILTETSENPTKATLGQITYNLNDDYNNQYRMPYKNIKAIKNNGRHYAAQNIEKAIDNDVNTYWETGTLNSSSFNNEVEVEFNDLVTLDRIVYGSRQSDLKGFAEEVYIYASRTSKGDTYKLVATGAHEATKGLVEAKFEPTEFKRVKFKFKKSKQNSATLNELMFYKPDEVYSSIPKLFTDGTMSELSEEFNSLEKINAFKEKAKNHPLYNDFNETIELAESLISNPRKEDVLELEMRGDSISEAKKRKVWNFQDWQITGLSARAGDKITVYVDVAEGDPTPTLLYKQSLTQHGGATSFQLKPGKNEITIPEINYESNGIPKDVIQGGDLFFTNYKSDSQKRAPKVRIEGASKYPVFILGKSDENEVMKELEAYVEKIKAEPKTTPNIFAVSSNKSLEFVQATYALDWYKKNNKTPKYTAEQWDQYIADAMGFWGFDNSKDVNSDFNFRIMPMVKNLSGGAFMNAGNGVIGIRPGNQDAILAANKGWGVAHELGHNFDTGGRTIVEVTNNMMPLFFESKYKTKTRITDQNIWENNTYPKVGLDDYSNNELYNKADSTHLAQLAPLWQLYLYDNTFYGKFERQFRERDFGNKNREDIYKSWVVAASDAMELDLTEFFARHGIRVDDKVKEDLAKYPKPDKKIYYLNDLAMNYKGDGFTENAKVSVSTSGSNGNIKLSFSVDDENKDNILGYEIRRDGKYVGFTSNDSFVDTKSNLDEDGVYVVTPYDRKLNTLNPIEVNALQPTLSVNPVITLALGEEFNEEEYIVAKDIKGNSLSESVKVKSSNVNTSKVGEYEVLYSLEDSKGNEYTKTSKVNVVSRKEYMSDLTPKQSSNGWGTVRKDKSISGGVIGLTRDGDFVDYNKGLGLHSNAEYVYDLEGKDYDYFESYVGVDKAMSSRPASSVIFKVLVDGEEKFNSGVMRSTTPQKYVKVDVKNAKELKLIVNDAGDGDSSDHASFGDAKLATLSSKPIIKGENLAYSMDEKVDLMKGITATDIEDGNITSKVQIKSSDFVEGKSGIFTVVYSVTDSDGLTSECSRTIAVTDKETQLSDLNWKSATIGSGSVRKDRAVSGNQIRLLNEDNSVETFAKGIGTHSYSEIVYNSEGYDIFDTWVGIDRHVADKKVSSVKFKVYVDGELKAETDVMRIDTPKKRLVVDVRNSKEIKLVVDVADNGNNWDHADWADAKFRNLAEYDASELNKAIEEAKKLDLNNYTEESSEALKNAISKGEEALLSKDKETINSALEELNKEMNSLVKVDLNAVINIPDKYLLKSIQNQLNKTGDITLGDMYSLTTLTLSGVEDLTGLENAKNLETLNMDYNEVKDLRPLSKLKKLNTLNAQEQFIAAGELKPSNGKVIGDSKVYNREGKNVAKTIRVVDKNGNTILEQDAKDEFTINTKDLSSGLYGVHVLFEDEGFSGVMFYLFNV
As for B1, the “glycan array binding signal (z-score)” value was -0.131 in experiment [1]; 0.174 in experiment [2]; -0.393 in experiment [3]; -0.084 in experiment [4]; -0.357 in experiment [5]; -0.319 in experiment [6]. For the same molecule, the “glycan array binding signal (z-score)” value is 0.253 in experiment [7]; -0.216 in experiment [8]; -0.131 in [9]; -0.163 in experiment [10]; -0.275 in experiment [11]; -0.089 in [12]. Moreover, the “glycan array binding signal (z-score)” value in experiment [13] is -0.173; in [14] it was -0.365; in experiment [15], -0.456.

For the origin of these results see the supplement of paper PMC8728848.
